Assay results as given in PubChem BioAssay AID1347120 (National Center for Advancing Translational Sciences (NCATS), 2019).
Hit rate of the full screen: of about 390,000 compounds, about 930 (0.24%) were called active. Inconclusive means that the source gave no clear call. Such entries were picked first, then a sample of the others. The call rests on the fitted dose curve; in most records, active means well fitted activation curve with a large enough effect; inconclusive means small, poorly fitted or top-dose-only effect; inactive means no such curve, though single readings can be large or run the other way. Where the call is inconclusive, the potency comes from a doubtful curve fit.

Assay: qHTS for Suppressors of FUS Proteinopathy: Primary screen using FUS-linked yeast assay; further: nearly all actives have a fitted effect of over 55% in size
Settings: S. cerevisiae FUS-expressing, OD600, 24 h; Potency: growth rescue; series mostly up to 76.6 µM
Procedure, shortened: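 Galactose (2%) drives FUS expression in yeast precultured in raffinose; seeding density OD 0.005. Test compounds incubated 24hr at 30C and 99% humidity before absorbance at 600 nm was measured.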
Potency means the concentration at half of the fitted maximal effect; tags describe the fitted curve by direction and shape.

**Q.** Which Potency does the source give for CCc1nc2ccc(C(=O)N3CCN(c4cccc(C(F)(F)F)c4)CC3)cc2nc1CC here?
**A.** Its Potency is inconclusive: 28.2 µM [activator, single point].

**Q.** For C=CCN1[C@H](Cc2ccccc2)COc2cc(N3CCSCC3)ccc2S1(=O)=O, which Potency is on record?
**A.** Its Potency is inconclusive: 8.91 µM [activator, partial curve, poor fit].

**Q.** For COc1ccc(S(=O)(=O)N2CCCC2)cc1C(=O)O, which Potency is on record?
**A.** The Potency was inconclusive: 0.891 µM [activator, full curve, poor fit].

**Q.** Which Potency does the source give for CCCCOc1ccccc1C1CC(=O)NC2=C1C(=O)CCC2 (centres undefined) here?
**A.** Its Potency is inconclusive: 39.8 µM [activator, single point].

**Q.** Which Potency does the source give for CN(C)S(=O)(=O)c1ccc(C(=O)NCc2ccc3[nH]c4c(c3c2)CCCC4)cc1 here?
**A.** Its Potency is inconclusive: 44.7 µM [activator, single point].

**Q.** For O=C(CSc1nnnn1-c1ccccc1)CC(=O)Nc1ccc(Cl)cc1, which Potency is on record?
**A.** The Potency was inconclusive: 31.6 µM [activator, single point].

**Q.** With Cc1ccc(S(=O)(=O)N2C[C@H]3N(C(=O)OC(C)C)N(C(=O)OC(C)C)C[C@H](OC(=O)NC4CC4)[C@@]3(O)C2)cc1 as the compound, how does the Potency read?
**A.** The Potency was inconclusive: 31.6 µM [activator, single point].

**Q.** Which Potency does the source give for O=C(c1cccc(Cl)c1)N1CCC(=O)N([C@H](COCc2cccc(Cl)c2)Cc2ccccc2)CC1 here?
**A.** Its Potency is inconclusive: 44.7 µM [activator, single point].

**Q.** For C(=N\Nc1nc(Nc2ccccc2)nc(N2CCOCC2)n1)/c1c[nH]c2ccccc12, which Potency is on record?
**A.** The Potency was active: 28.2 µM.

**Q.** With C=CCC[C@@H](CCCCC)OC(=O)/C=C/[C@H](O)[C@@H](O)C[C@H](O)CC=C as the compound, how does the Potency read?
**A.** Its Potency is inconclusive: 31.6 µM [activator, single point].

**Q.** Which Potency does the source give for CCN(CC(=O)Nc1cc(Cl)ccc1C)C(=O)C1CCN(c2ncnc3sc(C)c(C)c23)CC1 here?
**A.** Its Potency is inconclusive: 35.5 µM [activator, single point].

**Q.** For O=S1(=O)c2ccc(N3CCC[C@@H]3CO)cc2O[C@@H]2CCN1C2, which Potency is on record?
**A.** Its Potency is “inactive”.

**Q.** With Cc1ccccc1NC(=O)N(C)[C@H]1C[C@H]2c3[nH]c4c(-c5ccc6c(c5)OCO6)cccc4c3CCN2C[C@H]1[C@H](C)O as the compound, how does the Potency read?
**A.** Its Potency is inconclusive: 28.2 µM [activator, single point].

**Q.** For N#Cc1c(-c2ccccc2)cc(-c2ccccc2)nc1SCC(O)CS(=O)(=O)Cc1ccccc1 (centres undefined), which Potency is on record?
**A.** The Potency was “inactive”.

**Q.** Which Potency does the source give for COc1ccc(/C=C2/SC(=S)N(CCCC(=O)Nc3cccc(O)c3)C2=O)cc1 here?
**A.** Its Potency is inconclusive: 11.2 µM [activator, partial curve, poor fit].

**Q.** Which Potency does the source give for Cc1cc(NS(=O)(=O)c2ccc(NC(=O)C(C)Oc3ccc(C(C)C)cc3)cc2)no1 (centres undefined) here?
**A.** Its Potency is inconclusive: 50.1 µM [activator, single point].

**Q.** With COc1ccc(-c2cc(=O)oc3c(C)c(OC(C)C(=O)Nc4ccc(CN5CCOCC5)cc4)ccc23)cc1 (centres undefined) as the compound, how does the Potency read?
**A.** Its Potency is inconclusive: 12.6 µM [activator, partial curve, poor fit].

**Q.** For CCOc1ccc2nc(NC(=O)CSc3nc4ccccc4c(=O)n3Cc3ccco3)sc2c1, which Potency is on record?
**A.** The Potency was inconclusive: 50.1 µM [activator, single point].

**Q.** With COc1ccc(NC(=O)c2cc(C3CCCCN3C(=O)c3ccc(NC(C)=O)cc3)on2)c(C)c1 (centres undefined) as the compound, how does the Potency read?
**A.** Its Potency is inconclusive: 22.4 µM [activator, partial curve].

**Q.** Which Potency does the source give for Cc1ccccc1Cn1nnc2c(=O)[nH]c(C3CCCN(C(=O)c4ccc(C(C)(C)C)cc4)C3)nc21 (centres undefined) here?
**A.** The Potency was inconclusive: 50.1 µM [activator, single point].

**Q.** For COc1ccccc1NS(=O)(=O)c1cccc(C(=O)N/N=C/c2cn(-c3ccccc3)nc2-c2ccccc2)c1, which Potency is on record?
**A.** Its Potency is inconclusive: 5.62 µM [activator, full curve].

**Q.** Which Potency does the source give for CN(C)C(=O)CCc1ccc2c3c([nH]c2c1)[C@]1(CCC2CCCC2)[C@@H](C(=O)N2CCOCC2)C[C@H](CC(=O)NCCC2=CCCCC2)C(=O)N1CC3 here?
**A.** Its Potency is active: 15.8 µM.

**Q.** With COc1cccc(N2CCN(c3cnc4ccccc4n3)CC2)c1 as the compound, how does the Potency read?
**A.** Its Potency is “inactive”.

**Q.** Which Potency does the source give for CCC1S/C(=C(\C#N)C(=O)NCc2ccco2)N(c2ccc(F)cc2)C1=O (centres undefined) here?
**A.** Its Potency is “inactive”.

**Q.** With CSCCOC(=O)C1=C(C)NC(=O)NC1c1ccc2c(c1)OCO2 (centres undefined) as the compound, how does the Potency read?
**A.** Its Potency is “inactive”.

**Q.** With O=C(Nc1ccc(C(=O)N2CCOCC2)cc1)C1CCC1 as the compound, how does the Potency read?
**A.** The Potency was “inactive”.

**Q.** For CC(=O)N1CCCc2cc(S(=O)(=O)N3CCC(C(=O)N(C)C4CCCCC4)CC3)ccc21, which Potency is on record?
**A.** The Potency was “inactive”.

**Q.** For Cc1ccccc1CN1CCCCC(NC(=O)c2ccc(-c3ccccc3)cc2)C1=O (centres undefined), which Potency is on record?
**A.** Its Potency is inconclusive: 22.4 µM [activator, partial curve, poor fit].

**Q.** Which Potency does the source give for COc1ccc(C(C(=O)Nc2ccc(C(C)C)cc2)N(C)C(=O)c2ccc(=O)[nH]c2)cc1 (centres undefined) here?
**A.** The Potency was inconclusive: 39.8 µM [activator, single point].

**Q.** For O=C(Nc1cccc(F)c1)N1CCc2nc(NCc3cccc(Oc4ccccc4)c3)ncc2C1, which Potency is on record?
**A.** The Potency was “inactive”.

**Q.** For Cc1cc2ccccc2n1CCNC(=O)COc1ccc2ccccc2c1, which Potency is on record?
**A.** The Potency was inconclusive: 35.5 µM [activator, single point].

**Q.** With O=C(C1=C[C@H](c2ccccc2)C[C@H](OCc2ccc(CO)cc2)O1)N1CCN(Cc2ccc3c(c2)OCO3)CC1 as the compound, how does the Potency read?
**A.** The Potency was “inactive”.

**Q.** For CC1=CC(C)(C)Nc2cc(C)c(C)cc21, which Potency is on record?
**A.** The Potency was inconclusive: 31.6 µM [activator, partial curve, poor fit].

**Q.** For O=C1[C@H](Cc2ccccc2)NCCCC[C@H](c2ccc(Cl)cc2)N1Cc1ccc(Cl)cc1, which Potency is on record?
**A.** The Potency was inconclusive: 50.1 µM [activator, single point].

**Q.** With Cc1ccc2c(CC(=O)NNC(=O)c3ccccc3O)coc2c1 as the compound, how does the Potency read?
**A.** Its Potency is active: 35.5 µM.

**Q.** For COc1cccc(/C=N/n2nnnc2N)c1O, which Potency is on record?
**A.** The Potency was inconclusive: 50.1 µM [activator, single point].

**Q.** With CCOc1ccc(-c2nnn(CC(=O)N3CCCC(C)C3)n2)cc1 (centres undefined) as the compound, how does the Potency read?
**A.** Its Potency is “inactive”.

**Q.** With COc1ccc(S(=O)(=O)N2CCCCC2)cc1NC(=O)Cc1c[nH]c2ccccc12 as the compound, how does the Potency read?
**A.** Its Potency is inconclusive: 7.94 µM [activator, full curve].

**Q.** With CN(C)c1ccc(NC(=O)c2cn(-c3ccccc3)nc2-c2cccs2)cc1 as the compound, how does the Potency read?
**A.** Its Potency is inconclusive: 28.2 µM [activator, partial curve].
